# Measurements reported in the antibiotic and cytotoxicity screens of Wong et al. (2023).
# This is one part of the list.
# System: HSkMC (human skeletal muscle cells)
# Assay: cytotoxicity call (relative viability < 0.9)
# Details: 10 µM
row,SMILES,cytotoxicity call
1,O=C(O)CSCC(=O)N[C@H]1CCSC1=O,inactive
2,COC(=O)C[C@H]1CC[C@H]2[C@@H](COC[C@H](O)CN2S(=O)(=O)c2ccc(F)cc2)O1,inactive
3,C[C@@H]1COC(=O)[C@H](Cc2ccc(F)cc2)CC=CC[C@H](CC(=O)N(CCO)Cc2ccccc2)C(=O)N1,inactive
4,O=c1cc[nH]c(=O)[nH]1,inactive
5,COc1ccccc1-c1ccc2c(c1)O[C@@H](CN(C)CC1CCOCC1)[C@@H](C)CN([C@@H](C)CO)S2(=O)=O,inactive
6,C[C@H](CO)N1C[C@H](C)[C@@H](CN(C)C(=O)Nc2ccc(C(F)(F)F)cc2)Oc2c(NS(=O)(=O)c3ccc(F)cc3)cccc2C1=O,inactive
7,Cn1nc(CCO)cc1C(F)(F)F,inactive
8,Cc1noc(C)c1NC(=O)N(C)C[C@@H]1OCCCC[C@H](C)Oc2ccc(NC(=O)Nc3ccc(C(F)(F)F)cc3)cc2C(=O)N([C@@H](C)CO)C[C@@H]1C,inactive
9,C[C@@H]1CCC[C@H](C)N1c1nn(C)c(=O)[nH]1,inactive
10,C[C@@H]1CN([C@H](C)CO)C(=O)c2cc(NC(=O)Nc3ccc(C(F)(F)F)cc3)ccc2O[C@@H](C)CCCCO[C@H]1CN(C)Cc1ccccc1,active
11,Cc1noc(C)c1NC(=O)N[C@H]1CC[C@H](CC(=O)N2CCN(C)CC2)O[C@@H]1CO,inactive
12,C[C@@H]1CCCCO[C@@H](CN(C)Cc2ccc(C(=O)O)cc2)[C@@H](C)CN([C@H](C)CO)C(=O)c2cc(NC(=O)CCC(F)(F)F)ccc2O1,inactive
13,C[C@H]1CN([C@@H](C)CO)C(=O)Cc2cc(NC(=O)Cn3cnnn3)ccc2O[C@H]1CN(C)C(=O)Nc1ccc(C(F)(F)F)cc1,inactive
